Assay results published in PubChem BioAssay AID1460 (National Center for Advancing Translational Sciences (NCATS), 2008).
The campaign covered roughly 270,000 compounds. About 5,800 (2.1%) were called active. The shares of active, inactive and inconclusive entries below differ from those in the screen. The call rests on the fitted dose curve; in most records, active means well fitted inhibition curve with a large enough effect; inconclusive means small, poorly fitted or top-dose-only effect; inactive means flat fitted curve, though single readings scatter. Potencies of inconclusive entries are doubtful fits and often do not repeat.

These molecules were tested against Microtubule-associated protein tau (Homo sapiens) (UniProt P10636) (assay: qHTS for Inhibitors of Tau Fibril Formation, Thioflavin T Binding). Conditions: recombinant tau K18 P301L (four-repeat tau fragment), heparin-induced fibrillization, ThT fluorescence; series mostly up to 57.4 µM.
Sequence of UniProt P10636 (P10636 whole entry, looked up, the tested form may be a part): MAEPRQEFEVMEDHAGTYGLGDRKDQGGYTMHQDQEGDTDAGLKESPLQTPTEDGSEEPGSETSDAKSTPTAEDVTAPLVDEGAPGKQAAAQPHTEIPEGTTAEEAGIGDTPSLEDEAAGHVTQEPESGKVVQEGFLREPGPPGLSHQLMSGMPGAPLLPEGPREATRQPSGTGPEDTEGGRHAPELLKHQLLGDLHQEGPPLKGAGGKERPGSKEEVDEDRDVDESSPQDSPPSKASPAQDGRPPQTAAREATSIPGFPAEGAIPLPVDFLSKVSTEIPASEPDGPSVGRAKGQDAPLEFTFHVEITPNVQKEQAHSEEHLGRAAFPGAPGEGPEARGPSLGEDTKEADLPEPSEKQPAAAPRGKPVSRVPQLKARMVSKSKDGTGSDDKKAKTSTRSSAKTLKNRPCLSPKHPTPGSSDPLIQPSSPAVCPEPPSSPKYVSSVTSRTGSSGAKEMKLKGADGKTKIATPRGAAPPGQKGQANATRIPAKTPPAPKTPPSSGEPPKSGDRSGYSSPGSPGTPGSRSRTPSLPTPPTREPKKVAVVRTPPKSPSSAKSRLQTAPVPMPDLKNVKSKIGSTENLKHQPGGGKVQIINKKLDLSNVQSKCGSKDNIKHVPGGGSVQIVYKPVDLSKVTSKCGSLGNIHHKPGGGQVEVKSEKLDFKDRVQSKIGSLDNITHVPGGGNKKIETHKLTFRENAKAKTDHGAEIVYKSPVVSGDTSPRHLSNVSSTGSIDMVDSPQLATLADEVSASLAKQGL
Summary of the method: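 In this qHTS, human K18 P301L tau is incubated with compound and heparin for 6 hr at 37 C, and Thioflavin T fluorescence then reports fibril load.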
Further: nearly all actives have a fitted effect of over 55% in size.
Potency means the concentration at half of the fitted maximal effect; tags describe the fitted curve by direction and shape.

SMILES | Potency
CC(=O)Nc1ccc(OCCOc2ccc([N+](=O)[O-])cc2)cc1 | inconclusive: 22.4 µM [inhibitor, partial curve]
N#Cc1c(Nc2ccccc2Cl)s[nH]c1=O | active: 7.94 µM
Cc1ccsc1-c1n[nH]c(=S)n1CC(C)C | inconclusive: 39.8 µM [inhibitor, single point]
O=C1CN(CC(=O)N2CCCCC2)c2ccccc2O1 | active: 28.2 µM
Cc1ccc(NC(=O)c2cc3c(s2)CCCC3)cc1 | inconclusive: 7.94 µM [inhibitor, partial curve]
Cc1ccc(-n2nnc(-c3ccnc4ccccc34)n2)cc1 | inconclusive: 31.6 µM [inhibitor, single point]
COc1ccc(S(=O)(=O)Nc2ccccc2C(=O)Nc2nc(-c3ccc(F)cc3)cs2)cc1OC | inconclusive: 12.6 µM [inhibitor, partial curve]
COC(=O)c1ccc(N2CCC(C)CC2)c(N)c1 | inconclusive: 44.7 µM [inhibitor, single point]
CC1CCc2c(sc(NC(=O)c3ccc(Cn4cc([N+](=O)[O-])cn4)o3)c2C#N)C1 (stereo not drawn) | inconclusive: 15.8 µM [inhibitor, partial curve]
Nc1ccc(-c2nc3ccc(C(=O)O)cc3s2)cc1 | inconclusive: 6.31 µM [inhibitor, partial curve]
O=C(Nc1ccc(-c2nc3ccccc3s2)c(O)c1)c1ccc(Br)cc1 | inconclusive: 0.126 µM [inhibitor, full curve, poor fit]
COc1ccc(-c2nnc(SCC(=O)N3CCc4ccccc4C3)o2)cc1 | inconclusive: 5.01 µM [inhibitor, partial curve]
C=CCn1c(CCNC(=O)c2cccs2)nnc1SCC(=O)c1ccc(Br)cc1 | inconclusive: 17.8 µM [inhibitor, partial curve]
CCOc1ccc(C(=O)Nc2cccc(NC(=O)c3cccs3)c2)cc1[N+](=O)[O-] | inconclusive: 10 µM [inhibitor, partial curve]
Cc1[nH]c2ccccc2c1/C=C/C(=O)c1ccncc1 | inconclusive: 3.98 µM [inhibitor, partial curve]
CCCCSc1nc(C)cc(C)c1S(=O)(=O)c1ccccc1C | inconclusive: 22.4 µM [inhibitor, single point]
CCOc1ccccc1C(=O)Nc1cc(OC)ccc1OC | inconclusive: 22.4 µM [inhibitor, partial curve]
COC(=O)N1CCN(c2ccc(C(C)=O)cc2)CC1 | inconclusive: 6.31 µM [inhibitor, partial curve]
